# Experimental data published in the supplement of paper PMC8728848.
# Some of the results follow.
# How the values were obtained:
# Assay in all cases: glycan array binding signal (z-score within array); higher = stronger binding
# Conditions in all cases: glycan notation: IUPAC condensed, linker removed
# [1] = target: Neu5Ac(a2-3)Gal(b1-4)GlcNAc(b1-3)[Neu5Ac(a2-3)Gal(b1-4)GlcNAc(b1-6)]GalNAc
# In short: (§1)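 Arrays were curated from the Consortium for Functional Glycomics database, 3228 in total, and kept only where the protein sequence was available. Binding is expressed as a within-array Z-score. This score was averaged across arrays of the same protein sequence at different concentrations or buffers and across linkers, and negative values can be read as non-binding.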
# [2] = target: Neu5Ac(a2-3)Gal(b1-4)GlcNAc(b1-6)GalNAc
# In short: as §1
# [3] = target: Neu5Ac(a2-3)Gal(b1-4)GlcNAc(b1-6)[Gal(b1-3)]GalNAc
# In short: as §1
# [4] = target: Neu5Ac(a2-3)Gal(b1-4)GlcNAc(b1-6)[Neu5Ac(a2-3)Gal(b1-3)]GalNAc
# In short: as §1
# [5] = target: Neu5Ac(a2-3)Gal(b1-4)GlcNAc6S
# In short: as §1
# [6] = target: Neu5Ac(a2-3)Gal(b1-4)[Fuc(a1-3)]GlcNAc
# In short: as §1
# [7] = target: Neu5Ac(a2-3)Gal(b1-4)[Fuc(a1-3)]GlcNAc(b1-2)Man
# In short: as §1
# [8] = target: Neu5Ac(a2-3)Gal(b1-4)[Fuc(a1-3)]GlcNAc(b1-3)Gal
# In short: as §1
# [9] = target: Neu5Ac(a2-3)Gal(b1-4)[Fuc(a1-3)]GlcNAc(b1-3)Gal(b1-4)GlcNAc
# In short: as §1
# [10] = target: Neu5Ac(a2-3)Gal(b1-4)[Fuc(a1-3)]GlcNAc(b1-3)Gal(b1-4)[Fuc(a1-3)]GlcNAc(b1-3)Gal(b1-4)[Fuc(a1-3)]GlcNAc
# In short: as §1
# [11] = target: Neu5Ac(a2-3)Gal(b1-4)[Fuc(a1-3)]GlcNAc(b1-3)GalNAc
# In short: as §1
# [12] = target: Neu5Ac(a2-3)Gal(b1-4)[Fuc(a1-3)]GlcNAc(b1-6)[Gal(b1-3)]GalNAc
# In short: as §1
# [13] = target: Neu5Ac(a2-3)Gal(b1-4)[Fuc(a1-3)]GlcNAc(b1-6)[Neu5Ac(a2-3)Gal(b1-3)]GalNAc
# In short: as §1
# [14] = target: Neu5Ac(a2-3)Gal(b1-4)[Fuc(a1-3)]GlcNAc6S
# In short: as §1
# [15] = target: Neu5Ac(a2-3)Gal6S(b1-4)GlcNAc
# In short: as §1
# [16] = target: Neu5Ac(a2-3)Gal6S(b1-4)[Fuc(a1-3)]GlcNAc
# In short: as §1
# Neu5Ac(a2-3)GalNAc = target: Neu5Ac(a2-3)GalNAc
# In short: as §1
# [17] = target: Neu5Ac(a2-3)GalNAc(b1-4)GlcNAc
# In short: as §1
# [18] = target: Neu5Ac(a2-3)[GalNAc(b1-4)]Gal(b1-4)Glc
# In short: as §1
# [19] = target: Neu5Ac(a2-3)[GalNAc(b1-4)]Gal(b1-4)GlcNAc
# In short: as §1
# [20] = target: Neu5Ac(a2-3)[GalNAc(b1-4)]Gal(b1-4)GlcNAc(b1-3)GalNAc
# In short: as §1
# [21] = target: Neu5Ac(a2-3)[Neu5Ac(a2-6)]GalNAc
# In short: as §1
# Neu5Ac(a2-6)Gal = target: Neu5Ac(a2-6)Gal
# In short: as §1
# [22] = target: Neu5Ac(a2-6)Gal(b1-3)GlcNAc(b1-3)[Gal(b1-4)GlcNAc(b1-6)]Gal(b1-4)Glc
# In short: as §1
# Neu5Ac(a2-6)Gal(b1-4)Glc = target: Neu5Ac(a2-6)Gal(b1-4)Glc
# In short: as §1
# [23] = target: Neu5Ac(a2-6)Gal(b1-4)GlcNAc
# In short: as §1
# [24] = target: Neu5Ac(a2-6)Gal(b1-4)GlcNAc(b1-2)Man
# In short: as §1
# [25] = target: Neu5Ac(a2-6)Gal(b1-4)GlcNAc(b1-2)Man(a1-3)Man(b1-4)GlcNAc(b1-4)GlcNAc
# In short: as §1
# [26] = target: Neu5Ac(a2-6)Gal(b1-4)GlcNAc(b1-2)Man(a1-3)[Gal(b1-4)GlcNAc(b1-2)Man(a1-6)]Man(b1-4)GlcNAc(b1-4)GlcNAc
# In short: as §1
# [27] = target: Neu5Ac(a2-6)Gal(b1-4)GlcNAc(b1-2)Man(a1-3)[GlcNAc(b1-2)Man(a1-6)]Man(b1-4)GlcNAc(b1-4)GlcNAc
# In short: as §1
# [28] = target: Neu5Ac(a2-6)Gal(b1-4)GlcNAc(b1-2)Man(a1-3)[GlcNAc(b1-4)][Neu5Ac(a2-6)Gal(b1-4)GlcNAc(b1-2)Man(a1-6)]Man(b1-4)GlcNAc(b1-4)GlcNAc
# In short: as §1
binder,measurement,setting,value
"SSP1 (Sclerotinia sclerotiorum), XP_001584968 (protein) MGSSHHHHHHSSGLVPRGSHMSLLTTELACTSAPDQVLHLFFQDGQNILEARSPDGGNVWTTQDTIIAKDGDYNGSSMTCYYVDKDANFDNQPSIHLLYMNKDKQLTEKVKRMKGDNPIWEDAKVPDEVRKGPEQYSKLTSGSFNQGTGWNPNGSQWAYFSASKDGKMGIVEIRRTPKDPWHTETILEEKWGDELPGTALACVIGNGKIRVFLQHHDYSIILYENQNNTWHDRGTFIPKDKVQATTPLACTMTKDGSVHLFYVSKSNKIIHCTDGKKEEELINFFPGSKLGATSVENKITLFFRNLNPVNEVGTLENENGSWKHGTTVIPA",glycan array binding signal (z-score),[1],-0.365
same,glycan array binding signal (z-score),[2],-0.085
same,glycan array binding signal (z-score),[3],-0.687
same,glycan array binding signal (z-score),[4],-0.364
same,glycan array binding signal (z-score),[5],-0.503
same,glycan array binding signal (z-score),[6],-0.139
same,glycan array binding signal (z-score),[7],-0.489
same,glycan array binding signal (z-score),[8],-0.877
same,glycan array binding signal (z-score),[9],0.211
same,glycan array binding signal (z-score),[10],-0.118
same,glycan array binding signal (z-score),[11],0.244
same,glycan array binding signal (z-score),[12],0
same,glycan array binding signal (z-score),[13],1.79
same,glycan array binding signal (z-score),[14],-0.166
same,glycan array binding signal (z-score),[15],-0.085
same,glycan array binding signal (z-score),[16],-0.365
same,glycan array binding signal (z-score),Neu5Ac(a2-3)GalNAc,-0.556
same,glycan array binding signal (z-score),[17],0.205
same,glycan array binding signal (z-score),[18],0.286
same,glycan array binding signal (z-score),[19],-0.354
same,glycan array binding signal (z-score),[20],0.386
same,glycan array binding signal (z-score),[21],0.042
same,glycan array binding signal (z-score),Neu5Ac(a2-6)Gal,0.232
same,glycan array binding signal (z-score),[22],-0.303
same,glycan array binding signal (z-score),Neu5Ac(a2-6)Gal(b1-4)Glc,-0.168
same,glycan array binding signal (z-score),[23],0.618
same,glycan array binding signal (z-score),[24],-0.172
same,glycan array binding signal (z-score),[25],-0.09
same,glycan array binding signal (z-score),[26],0.559
same,glycan array binding signal (z-score),[27],-0.35
same,glycan array binding signal (z-score),[28],-0.21
